The values that follow come from PubChem BioAssay AID310 (DTP/NCI, 2004).

Results filed as inconclusive are left out. A number of entries come with more than one value. They are shown here; other results are not. There may be further records. The records of an entry are repeats across runs, samples, wells, individuals or studies.

The test system of this assay is C3AKF1 mice, osteogenic sarcoma HE10734 s.c., tumor weight T/C. Description: NCI In Vivo Anticancer Drug Screen. Data for tumor model Osteogenic Sarcoma HE 10734 (subcutaneous) in C3AKF1 (CHKRF1) mice. The note with it: endpoint: mean tumor weight, schedule: Q01DX010 (ip), higher = larger tumour. As to the method: The antitumor activity of compounds was measured in mice bearing transplantable tumors. Survival or tumor size were measured and the results are expressed as the measurement made in the treated group (T) divided by the measurement made in the vehicle treated control group (C). The tumor model used in this assay is Osteogenic Sarcoma HE 10734 (subcutaneous) in C3AKF1 (CHKRF1) mice

[1] abbreviates: dose: 200.0 mg/kg/injection, vehicle: saline.
Setting [2] is: dose: 250.0 mg/kg/injection, vehicle: saline.

Consider `O=P1(N(CCCl)CCCl)NCCCO1` (stereo not drawn), for which the T/C (dose: 12.5 mg/kg/injection, vehicle: saline) was 20 % of control and 157 % of control.
Take `CCC(=O)NC1=C(N2CC2)C(=O)C(NC(=O)CC)=C(N2CC2)C1=O`: the T/C (dose: 0.6 mg/kg/injection, vehicle: saline) was 42 % of control and 81 % of control.
For `c1ccc(CSc2ncnc3nc[nH]c23)nc1`, the T/C by setting is: (dose: 25.0 mg/kg/injection, vehicle: saline) 59 % of control and 99 % of control; under setting [1], 7 % of control, 28 % of control, 43 % of control.
On to `Cc1nc(N)nc(N)c1-c1ccc(Cl)c(Cl)c1`, for which, where the note is “dose: 0.75 mg/kg/injection, vehicle: carboxymethylcellulose (CMC)”, the T/C was 28 % of control and 79 % of control.
Take `CS(=O)(=O)OC[C@@H](O)[C@@H](O)COS(C)(=O)=O`: the T/C (dose: 250.0 mg/kg/injection, vehicle: carboxymethylcellulose (CMC)) is 77 % of control and 107 % of control.
In the case of `C=CCn1c(=O)n(CC=C)c(=O)n(CC=C)c1=O`, the T/C under setting [2] was 44 % of control and 72 % of control.
Consider `O=C(O)C1(NO)CCCC1`, for which the T/C (dose: 56.0 mg/kg/injection, vehicle: saline) is 39 % of control and 80 % of control.
`CN(C)c1ccc(/C=C\c2ccnc3ccccc23)cc1`: the T/C by setting is: (dose: 1.25 mg/kg/injection, vehicle: carboxymethylcellulose (CMC)) 79 % of control and 107 % of control; (dose: 5.0 mg/kg/injection, vehicle: carboxymethylcellulose (CMC)) 56 % of control and 110 % of control; (dose: 10.0 mg/kg/injection, vehicle: carboxymethylcellulose (CMC)) 48 % of control, 90 % of control, 95 % of control; (dose: 33.0 mg/kg/injection, vehicle: carboxymethylcellulose (CMC)) 59 % of control and 85 % of control.
Regarding `C/C=C1\CN(C)[C@H]2Cc3c([nH]c4ccccc34)[C@@H](c3cc4[nH]c5c(c4cc3OC)CCN3C[C@H]4C[C@H](CC)[C@H]3[C@@]5(C(=O)OC)C4)C[C@H]1C2C(=O)OC` (stereo partly drawn), the T/C (dose: 13.0 mg/kg/injection, vehicle: water) was 73 % of control and 101 % of control; the T/C (dose: 45.0 mg/kg/injection, vehicle: water) was 26 % of control and 53 % of control.
With `NC(CCSCc1ccc(N(CCCl)CCCl)cc1)C(=O)O` (stereo not drawn), the T/C is, setting by setting: (dose: 18.0 mg/kg/injection, vehicle: saline) 36 % of control and 76 % of control; (dose: 36.0 mg/kg/injection, vehicle: saline) 37 % of control, 59 % of control, 80 % of control.
For `CN(N=O)C(N)=O`, the T/C (dose: 7.0 mg/kg/injection, vehicle: carboxymethylcellulose (CMC)) was 38 % of control and 107 % of control.
With `ClCCn1cnc2c(SCc3ccccc3)ncnc21`, under setting [1], the T/C was 40 % of control and 90 % of control.
As to `NC(=O)c1ccc(NC(=O)CCC(=O)Nc2ccc(C(N)=O)cn2)nc1`, the T/C (dose: 0.83 mg/kg/injection, vehicle: carboxymethylcellulose (CMC)) was 27 % of control and 91 % of control.
As to `O=c1n(CCCl)c(=O)n(CCCl)c(=O)n1CCCl`, under setting [2], the T/C is 62 % of control and 123 % of control.
Consider `Clc1ncnc2c1ncn2C1CCCO1` (stereo not drawn), for which the T/C (dose: 75.0 mg/kg/injection, vehicle: saline) was 38 % of control and 82 % of control; the T/C (dose: 150.0 mg/kg/injection, vehicle: saline) was 34 % of control and 63 % of control; the T/C (dose: 300.0 mg/kg/injection, vehicle: saline) is 55 % of control, 70 % of control, 88 % of control.
